# According to the supplement of paper PMC8728848:
# The list shows a part of the results.
# B1: Gal 9 (Homo sapiens), O00182 (protein)
# chain: MAFSGSQAPYLSPAVPFSGTIQGGLQDGLQITVNGTVLSSSGTRFAVNFQTGFSGNDIAFHFNPRFEDGGYVVCNTRQNGSWGPEERKTHMPFQKGMPFDLCFLVQSSDFKVMVNGILFVQYFHRVPFHRVDTISVNGSVQLSYISFQNPRTVPVQPAFSTVPFSQPVCFPPRPRGRRQKPPGVWPANPAPITQTVIHTVQSAPGQMFSTPAIPPMMYPHPAYPMPFITTILGGLYPSKSILLSGTVLPSAQRFHINLCSGNHIAFHLNPRFDENAVVRNTQIDNSWGSEERSLPRKMPFVRGQSFSVWILCEAHCLKVAVDGQHLFEYYHRLRNLPTINRLEVGGDIQLTHVQT
# What was measured:
# Assay in all cases: glycan array binding signal (z-score within array); higher = stronger binding
# Conditions in all cases: glycan notation: IUPAC condensed, linker removed
# [1] = biological target: Gal(b1-4)GlcNAc(b1-2)Man(a1-3)[Gal(b1-4)GlcNAc(b1-2)Man(a1-6)][Gal(b1-4)GlcNAc(b1-4)]Man(b1-4)GlcNAc(b1-4)[Fuc(a1-6)]GlcNAc
# How it was run: (§1)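 Arrays were curated from the Consortium for Functional Glycomics database, 3228 in total, and kept only where the protein sequence was available. Binding is expressed as a within-array Z-score. This score was averaged across arrays of the same protein sequence at different concentrations or buffers and across linkers, and negative values can be read as non-binding.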
# [2] = biological target: Gal(b1-4)GlcNAc(b1-2)Man(a1-3)[Gal(b1-4)GlcNAc(b1-2)Man(a1-6)][GlcNAc(b1-4)]Man(b1-4)GlcNAc(b1-4)[Fuc(a1-6)]GlcNAc
# How it was run: as §1
# [3] = biological target: Gal(b1-4)GlcNAc(b1-2)Man(a1-3)[Gal(b1-4)GlcNAc(b1-2)][GlcNAc(b1-4)]Man(b1-4)GlcNAc(b1-4)GlcNAc
# How it was run: as §1
# [4] = biological target: Gal(b1-4)GlcNAc(b1-2)Man(a1-3)[GlcNAc(b1-2)Man(a1-6)]Man(b1-4)GlcNAc(b1-4)GlcNAc
# How it was run: as §1
# [5] = biological target: Gal(b1-4)GlcNAc(b1-2)Man(a1-3)[GlcNAc(b1-4)][Gal(b1-4)GlcNAc(b1-2)Man(a1-6)]Man(b1-4)GlcNAc(b1-4)GlcNAc
# How it was run: as §1
# [6] = biological target: Gal(b1-4)GlcNAc(b1-2)Man(a1-3)[Man(a1-6)]Man(b1-4)GlcNAc(b1-4)GlcNAc
# How it was run: as §1
# [7] = biological target: Gal(b1-4)GlcNAc(b1-2)Man(a1-6)Man(b1-4)GlcNAc(b1-4)GlcNAc
# How it was run: as §1
# [8] = biological target: Gal(b1-4)GlcNAc(b1-2)Man(a1-6)[GlcNAc(b1-2)Man(a1-3)]Man(b1-4)GlcNAc(b1-4)GlcNAc
# How it was run: as §1
# [9] = biological target: Gal(b1-4)GlcNAc(b1-2)Man(a1-6)[Man(a1-3)]Man(b1-4)GlcNAc(b1-4)GlcNAc
# How it was run: as §1
# [10] = biological target: Gal(b1-4)GlcNAc(b1-2)[Gal(b1-4)GlcNAc(b1-4)]Man(a1-3)[Gal(b1-4)GlcNAc(b1-2)Man(a1-6)]Man(b1-4)GlcNAc(b1-4)GlcNAc
# How it was run: as §1
# [11] = biological target: Gal(b1-4)GlcNAc(b1-2)[Gal(b1-4)GlcNAc(b1-4)]Man(a1-3)[Gal(b1-4)GlcNAc(b1-2)[Gal(b1-4)GlcNAc(b1-6)]Man(a1-6)]Man(b1-4)GlcNAc(b1-4)GlcNAc
# How it was run: as §1
# [12] = biological target: Gal(b1-4)GlcNAc(b1-2)[Gal(b1-4)GlcNAc(b1-4)]Man(a1-3)[GlcNAc(b1-4)][Gal(b1-4)GlcNAc(b1-2)Man(a1-6)]Man(b1-4)GlcNAc(b1-4)GlcNAc
# How it was run: as §1
# [13] = biological target: Gal(b1-4)GlcNAc(b1-2)[Gal(b1-4)GlcNAc(b1-4)]Man(a1-3)[GlcNAc(b1-4)][Gal(b1-4)GlcNAc(b1-2)[Gal(b1-4)GlcNAc(b1-6)]Man(a1-6)]Man(b1-4)GlcNAc(b1-4)GlcNAc
# How it was run: as §1
# [14] = biological target: Gal(b1-4)GlcNAc(b1-2)[Gal(b1-4)GlcNAc(b1-6)]Man(a1-6)[Gal(b1-4)GlcNAc(b1-2)Man(a1-3)]Man(b1-4)GlcNAc(b1-4)GlcNAc
# How it was run: as §1
# [15] = biological target: Gal(b1-4)GlcNAc(b1-2)[Gal(b1-4)GlcNAc(b1-6)]Man(a1-6)[Gal(b1-4)GlcNAc(b1-2)Man(a1-3)]Man(b1-4)GlcNAc(b1-4)[Fuc(a1-6)]GlcNAc
# How it was run: as §1
# [16] = biological target: Gal(b1-4)GlcNAc(b1-2)[Gal(b1-4)GlcNAc(b1-6)]Man(a1-6)[GlcNAc(b1-4)][Gal(b1-4)GlcNAc(b1-2)Man(a1-3)]Man(b1-4)GlcNAc(b1-4)GlcNAc
# How it was run: as §1
# [17] = biological target: Gal(b1-4)GlcNAc(b1-2)[Gal(b1-4)GlcNAc(b1-6)]Man(a1-6)[GlcNAc(b1-4)][Gal(b1-4)GlcNAc(b1-2)[Gal(b1-4)GlcNAc(b1-4)]Man(a1-3)]Man(b1-4)GlcNAc(b1-4)[Fuc(a1-6)]GlcNAc
# How it was run: as §1
# [18] = biological target: Gal(b1-4)GlcNAc(b1-3)Gal(b1-3)GalNAc
# How it was run: as §1
# [19] = biological target: Gal(b1-4)GlcNAc(b1-3)Gal(b1-3)GlcNAc
# How it was run: as §1
# [20] = biological target: Gal(b1-4)GlcNAc(b1-3)Gal(b1-4)Glc
# How it was run: as §1
# [21] = biological target: Gal(b1-4)GlcNAc(b1-3)Gal(b1-4)GlcNAc
# How it was run: as §1
# [22] = biological target: Gal(b1-4)GlcNAc(b1-3)Gal(b1-4)GlcNAc(b1-2)Man(a1-3)[Gal(b1-4)GlcNAc(b1-3)Gal(b1-4)GlcNAc(b1-2)Man(a1-6)]Man(b1-4)GlcNAc(b1-4)GlcNAc
# How it was run: as §1
binder,measurement,setting,value
B1,glycan array binding signal (z-score),[1],-0.269
same,glycan array binding signal (z-score),[2],-0.289
same,glycan array binding signal (z-score),[3],3.85
same,glycan array binding signal (z-score),[4],0.225
same,glycan array binding signal (z-score),[5],-0.277
same,glycan array binding signal (z-score),[6],0.484
same,glycan array binding signal (z-score),[7],0.03
same,glycan array binding signal (z-score),[8],-0.116
same,glycan array binding signal (z-score),[9],0.09
same,glycan array binding signal (z-score),[10],0.957
same,glycan array binding signal (z-score),[11],4.71
same,glycan array binding signal (z-score),[12],3.62
same,glycan array binding signal (z-score),[13],-0.3
same,glycan array binding signal (z-score),[14],-0.249
same,glycan array binding signal (z-score),[15],-0.309
same,glycan array binding signal (z-score),[16],3.87
same,glycan array binding signal (z-score),[17],-0.28
same,glycan array binding signal (z-score),[18],0.352
same,glycan array binding signal (z-score),[19],0.445
same,glycan array binding signal (z-score),[20],0.606
same,glycan array binding signal (z-score),[21],1.14
same,glycan array binding signal (z-score),[22],1.43
